Data: PMC4336329 (PLoS ONE, 2015)
Out of some 310,000 compounds screened, about 14,000 (4.5%) showed an effect of 50% or more. Effects have a minus sign here. This is one part of the list.

Target: human ether-à-go-go-related gene (hERG) potassium channel (human, UniProt Q12809)
Assay: primary screen, population patch clamp on CHO cells stably expressing hERG
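Note: peak tail current of the secondary pulse compared with the same well before compound.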

human ether-à-go-go-related gene (hERG) potassium channel, sequence (Q12809 whole entry, looked up): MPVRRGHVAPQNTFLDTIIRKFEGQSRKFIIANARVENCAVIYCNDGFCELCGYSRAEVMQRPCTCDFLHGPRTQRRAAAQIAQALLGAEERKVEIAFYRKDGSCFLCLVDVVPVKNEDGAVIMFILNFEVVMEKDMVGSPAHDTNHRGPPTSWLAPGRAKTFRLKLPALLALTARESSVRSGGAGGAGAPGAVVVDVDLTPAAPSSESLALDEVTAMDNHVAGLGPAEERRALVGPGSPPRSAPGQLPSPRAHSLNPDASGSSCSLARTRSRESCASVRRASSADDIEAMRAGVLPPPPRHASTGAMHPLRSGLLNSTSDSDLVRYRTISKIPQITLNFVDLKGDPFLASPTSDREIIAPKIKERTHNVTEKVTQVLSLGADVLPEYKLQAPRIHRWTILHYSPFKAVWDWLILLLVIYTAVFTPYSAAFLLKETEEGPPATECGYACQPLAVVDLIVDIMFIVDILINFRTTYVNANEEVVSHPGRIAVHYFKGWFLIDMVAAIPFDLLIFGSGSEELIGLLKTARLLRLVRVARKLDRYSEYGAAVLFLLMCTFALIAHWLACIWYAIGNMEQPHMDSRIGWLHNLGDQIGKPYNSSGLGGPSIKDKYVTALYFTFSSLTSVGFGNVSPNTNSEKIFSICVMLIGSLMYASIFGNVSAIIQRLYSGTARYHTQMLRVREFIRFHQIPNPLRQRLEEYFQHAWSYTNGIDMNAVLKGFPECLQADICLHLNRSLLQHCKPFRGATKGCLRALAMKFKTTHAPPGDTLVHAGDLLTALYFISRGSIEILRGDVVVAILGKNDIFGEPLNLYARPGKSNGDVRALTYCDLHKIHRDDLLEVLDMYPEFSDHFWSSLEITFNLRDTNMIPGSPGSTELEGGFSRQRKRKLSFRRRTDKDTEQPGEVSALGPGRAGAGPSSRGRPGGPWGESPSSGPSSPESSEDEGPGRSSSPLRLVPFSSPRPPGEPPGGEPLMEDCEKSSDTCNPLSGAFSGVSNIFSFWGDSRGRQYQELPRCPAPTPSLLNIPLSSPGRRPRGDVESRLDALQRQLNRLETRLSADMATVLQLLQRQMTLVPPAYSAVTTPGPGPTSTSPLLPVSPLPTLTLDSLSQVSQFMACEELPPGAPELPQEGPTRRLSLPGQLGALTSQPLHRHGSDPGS

Row | SMILES | hERG current change (%, negative = inhibition) at 10uM [%]
1 | Cc1ccc(NCC(=O)N=Nc2c(O)n(C)c3ccccc23)cc1 | -15.6
2 | Cc1ccc(-n2c(C)nc3c(cnn3-c3ccc(F)cc3)c2=O)cc1 | 7.66
3 | Cc1cccc(NC(=O)NC2(C(=O)NCc3ccco3)CCCCC2)c1 | -33.8
4 | O=C(Cc1sc(Nc2ccccc2)nc1-c1ccccc1)NCc1ccccc1 | 25.6
5 | COc1cccc(C(=O)N(c2ccc(OC)cc2OC)C2C=CS(=O)(=O)C2)c1 (stereo not drawn) | -0.147
6 | CCc1nnc(NC(=O)COc2ccccc2[N+](=O)[O-])s1 | -0.186
7 | COc1ccccc1CNC(=O)CSc1nc(-c2ccccc2)cn1N | -3.43
8 | Cn1c(SCc2ccc(F)cc2)nnc1-c1cccs1 | -15.5
9 | COc1ccc(C(=O)c2nccc3ccccc23)cc1 | 0.535
10 | COc1ccc(C(=O)Nc2cccc(NC(=O)c3cccs3)c2)cc1 | -7.05
11 | O=C(O)c1ccccc1-c1ccccc1C(=O)Nc1ccc2c(c1)[nH]c(=O)c1ccccc12 | 24.5
12 | Cc1ccc(NC(=O)NC(=O)CSc2nnnn2C)c(C)c1 | 2.01
13 | O=C1CC(c2ccccc2)SC(N(c2ccccc2)c2ccccc2)=N1 (stereo not drawn) | -0.167
14 | O=C(O)c1ccc(/C=N/NC(=O)c2cc(-c3cccs3)nc3ccccc23)cc1 | 12.4
15 | Cc1cc(N2CCOCC2)nc(NCc2ccccc2)n1 | -35.4
16 | O=C(O)C1Nc2c(O)cc(Cl)c([N+](=O)[O-])c2C2C=CCC12 (stereo not drawn) | 18.2
17 | CC1=Nc2ccccc2/C1=C/c1c(N)n2c(S(=O)(=O)C(C)C)nsc2nc1=O | 21.2
18 | CN1CCN(C(=O)c2ccc(CSc3nc4ccncc4n3Cc3ccc(F)cc3)cc2)CC1 | 0.727
19 | O=[N+]([O-])c1ccc(Cl)c(Cl)c1Cl | -5.28
20 | O=C(C1CCCN(S(=O)(=O)c2cnc[nH]2)C1)N1CCN(Cc2ccccc2)CC1 (stereo not drawn) | 6.16
21 | Cn1c(-c2ccc(Br)cc2)cnc1NCc1cccnc1 | -41.3
22 | CNC(=O)CC(=O)Nc1ccccc1C(=O)O | 27.5
23 | COc1ccc(CCNC(=O)c2c[nH]c3ccc(F)cc3c2=O)cc1OC | 17.6
24 | COc1ccc(C2c3ccc(O)cc3Oc3ncn(CCCO)c(=N)c32)cc1 (stereo not drawn) | -22.8
